Assay results as given in patent publication US20240141014A1 (SHATTUCK LABS, published 2024).

Assays:
PD-L1 protein [1] = target: T1, PD-L1 protein (UniProt Q9NZQ7 part only, limits assumed); assay: BLI (Octet, ForteBio), biotinylated hPD-L1 loaded on the biosensor (Loading Sample ID: hPDL1-biotin; Acro-Biotin); kdis(1/s); Full R^2 0.9715
T1 construct: also called recombinant PD-L1

PD-L1 protein [2] = target: T1, PD-L1 protein; assay: BLI (Octet, ForteBio), biotinylated hPD-L1 loaded on the biosensor (Loading Sample ID: hPDL1-biotin; Acro-Biotin); Full R^2 0.9715
T1 sequence (Q9NZQ7 19-238 limits assumed): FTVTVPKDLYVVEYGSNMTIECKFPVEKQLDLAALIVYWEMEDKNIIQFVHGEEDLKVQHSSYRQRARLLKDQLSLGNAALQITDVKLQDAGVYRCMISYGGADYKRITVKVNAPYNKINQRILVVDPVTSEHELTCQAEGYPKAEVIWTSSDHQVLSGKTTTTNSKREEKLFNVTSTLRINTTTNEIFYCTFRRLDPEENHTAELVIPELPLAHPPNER

- koff (PD-L1 protein [1]): 0.0112 s⁻¹
- Kd (PD-L1 protein [2]): 90.4 nM
- kon (PD-L1 protein [2]): 124000 M⁻¹ s⁻¹
B1: PD-1(S87C)-Fc fusion protein (Fc fusion)
chain: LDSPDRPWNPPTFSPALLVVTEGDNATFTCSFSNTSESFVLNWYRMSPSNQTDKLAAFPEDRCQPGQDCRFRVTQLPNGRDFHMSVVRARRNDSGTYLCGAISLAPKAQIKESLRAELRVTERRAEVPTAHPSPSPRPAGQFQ
notes: also called G3; not shown: Fc domain and any joining linker of the tested construct are not specified
